Laboratory results as given in PubChem BioAssay AID463173 (ICCB-Longwood Screening Facility, Harvard Medical School, 2010).
Hit rate of the full screen: of about 52,000 compounds, about 4,300 (8.3%) were called active. Rule as the data show it: active = survival mostly below about 52% (no sharp cut-off); inactive = mostly above about 56%. The list shows a part of the results.

The compounds below were run on DeltatarO mutant (assay: growth inhibition of S. aureus wild type versus tarO mutant, primary screen, teichoic acid synthesis inhibitors, RN4220, OD600 (AID 463173)). Details: OD600, 18 h, hits give low values, screened at 18.75 µg/mL (by protocol).

Structure (SMILES) | survival
CCc1ccc(NC(=O)c2cccc(N3CCCS3(=O)=O)c2)cc1 | inactive: 81%
Cc1ccc(NC(=O)CN2C(=O)C(c3ccc(C)cc3)=NC23CCCCCC3)cc1 | inactive: 62%
Cc1ccc(C)c(N2CCN(C(=O)CCS(=O)(=O)c3ccc4c(c3)oc(=O)n4C)CC2)c1 | inactive: 115%
COc1ccc2c(c1)c(=O)c(S(=O)(=O)c1ccc(Cl)cc1)cn2Cc1cc(C)ccc1C | inactive: 68%
CCOc1cc2c(cc1OCC)C(CC(=O)OC)N(C(=O)Nc1cc(OC)ccc1OC)CC2 (stereo not drawn) | inactive: 83%
CCN(CC)C(=O)c1sc2c(c1C)c(=O)n(CCc1ccccc1)c(=O)n2Cc1ccc(C)cc1 | inactive: 79%
Cc1cc(C)cc(NC(=O)Cn2nc(N3CCN(c4ccccc4)CC3)ccc2=O)c1 | inactive: 84%
Cc1ccc(C(C)N2CCN(S(=O)(=O)c3ccc4c(c3)OCCO4)CC2)cc1C (stereo not drawn) | inactive: 66%
CC(=O)c1c(C)n(S(=O)(=O)c2ccc(Cl)cc2)c2ccc(NS(=O)(=O)c3ccc(Cl)cc3)cc12 | inactive: 59%
COc1ccc(S(=O)(=O)NCCc2sc(-c3cccnc3)nc2C)cc1OC | inactive: 88%
COc1cc(CN(C(=O)c2ccccc2Br)c2ccccn2)cc(OC)c1OC | inactive: 72%
Cc1ccc(CNC(=O)CCSCc2cnn(-c3ccccc3)c2-n2cccc2)cc1 | inactive: 64%
COc1ccc(NCc2cccn2-c2nnc(N3CCOCC3)s2)cc1OC | inactive: 87%
COc1ccc(CNC(=O)Cn2ncc3c(=O)oc4ccccc4c32)c(OC)c1 | inactive: 89%
CCCCNC(=O)c1cc(-c2cccnc2)nc2ccc(S(=O)(=O)NCCCC)cc12 | inactive: 70%
COC(=O)CCCn1c(-c2ccc(C)cc2)c(C)n2c3c(=O)n(C)c(=O)n(C)c3nc12 | inactive: 58%
COc1ccc(CNC(=O)CC2N=C3c4ccccc4N=C(SCC(=O)Nc4ccc(C(C)C)cc4)N3C2=O)cc1 (stereo not drawn) | inactive: 90%
COc1ccc(-c2cn3c(n2)sc2cc(C(=O)NC(C)C45CC6CC(CC(C6)C4)C5)ccc23)cc1 (stereo not drawn) | inactive: 72%
COCc1cc(C)nc2sc3c(c12)NC(c1ccccc1C(=O)O)N(c1cccc(C(F)(F)F)c1)C3=O (stereo not drawn) | inactive: 97%
COc1cc([N+](=O)[O-])ccc1NC(=O)c1nc2ccccc2n(C)c1=O | inactive: 102%
Cc1ccc(S(=O)(=O)c2nc(-c3cccc(Br)c3)oc2N2CCCCCC2)cc1 | active: 45%
O=C(CSc1nnc2[nH]c(=O)cc(-c3ccccc3)n12)Nc1ccc(OC(F)(F)F)cc1 | inactive: 80%
Cc1csc2nc(COC(=O)c3cccc(NC(=O)COc4ccccc4Cl)c3)cc(=O)n12 | inactive: 88%
